Experimental data: article PMC4207803
These are yes or no findings as the source states them, for the method shown. For some assays here: Binding seen in cells or lysates may run through a third protein. Some entries that bind do so weakly or less than the wild type. For some assays here: Where a sequence is shown, tags or fusion partners need not be part of it. Values belong to the molecule of their own block, whether it stands above or below them.

Sequences of proteins named here, by UniProt entry; tags and fusion partners are left off. A change or cut given only in a name is not applied to a line headed by its entry. A line that says so, or that is headed by a name, gives the form on record, which may keep a tag or linker. Residues count along the entry.
UniProt Q14671: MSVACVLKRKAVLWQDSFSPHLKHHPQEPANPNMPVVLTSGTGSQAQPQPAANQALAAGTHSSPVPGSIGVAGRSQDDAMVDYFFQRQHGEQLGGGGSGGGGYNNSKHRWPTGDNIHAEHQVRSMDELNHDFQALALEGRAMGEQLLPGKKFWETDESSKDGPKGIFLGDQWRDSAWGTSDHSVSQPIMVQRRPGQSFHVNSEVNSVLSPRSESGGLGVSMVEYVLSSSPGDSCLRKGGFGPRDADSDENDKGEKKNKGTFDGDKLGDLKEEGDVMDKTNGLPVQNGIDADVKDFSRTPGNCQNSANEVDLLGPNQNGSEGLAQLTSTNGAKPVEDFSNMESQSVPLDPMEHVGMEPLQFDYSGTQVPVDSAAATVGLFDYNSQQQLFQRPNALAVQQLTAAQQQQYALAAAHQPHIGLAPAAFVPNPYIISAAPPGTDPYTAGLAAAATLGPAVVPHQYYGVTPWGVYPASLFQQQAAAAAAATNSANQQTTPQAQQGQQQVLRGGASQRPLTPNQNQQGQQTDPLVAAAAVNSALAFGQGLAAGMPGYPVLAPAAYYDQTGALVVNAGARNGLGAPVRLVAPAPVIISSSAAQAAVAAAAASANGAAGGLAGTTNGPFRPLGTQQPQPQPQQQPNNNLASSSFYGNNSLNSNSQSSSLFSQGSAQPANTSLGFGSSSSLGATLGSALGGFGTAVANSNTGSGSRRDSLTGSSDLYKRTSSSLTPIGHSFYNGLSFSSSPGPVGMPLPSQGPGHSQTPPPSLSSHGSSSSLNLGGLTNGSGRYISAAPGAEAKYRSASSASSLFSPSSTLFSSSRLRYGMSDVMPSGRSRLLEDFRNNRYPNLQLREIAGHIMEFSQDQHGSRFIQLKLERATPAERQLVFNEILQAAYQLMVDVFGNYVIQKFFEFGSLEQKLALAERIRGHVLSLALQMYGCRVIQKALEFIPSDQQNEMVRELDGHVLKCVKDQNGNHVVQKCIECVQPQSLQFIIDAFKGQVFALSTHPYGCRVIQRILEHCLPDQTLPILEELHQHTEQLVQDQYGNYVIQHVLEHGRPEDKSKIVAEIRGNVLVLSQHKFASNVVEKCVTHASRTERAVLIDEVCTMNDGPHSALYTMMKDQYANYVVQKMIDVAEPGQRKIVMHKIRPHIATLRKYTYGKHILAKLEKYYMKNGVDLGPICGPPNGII
Flag-tagged PUM1dN (PUM-HD of PUM1): residues 828-1168 of Q14671
UniProt Q14258: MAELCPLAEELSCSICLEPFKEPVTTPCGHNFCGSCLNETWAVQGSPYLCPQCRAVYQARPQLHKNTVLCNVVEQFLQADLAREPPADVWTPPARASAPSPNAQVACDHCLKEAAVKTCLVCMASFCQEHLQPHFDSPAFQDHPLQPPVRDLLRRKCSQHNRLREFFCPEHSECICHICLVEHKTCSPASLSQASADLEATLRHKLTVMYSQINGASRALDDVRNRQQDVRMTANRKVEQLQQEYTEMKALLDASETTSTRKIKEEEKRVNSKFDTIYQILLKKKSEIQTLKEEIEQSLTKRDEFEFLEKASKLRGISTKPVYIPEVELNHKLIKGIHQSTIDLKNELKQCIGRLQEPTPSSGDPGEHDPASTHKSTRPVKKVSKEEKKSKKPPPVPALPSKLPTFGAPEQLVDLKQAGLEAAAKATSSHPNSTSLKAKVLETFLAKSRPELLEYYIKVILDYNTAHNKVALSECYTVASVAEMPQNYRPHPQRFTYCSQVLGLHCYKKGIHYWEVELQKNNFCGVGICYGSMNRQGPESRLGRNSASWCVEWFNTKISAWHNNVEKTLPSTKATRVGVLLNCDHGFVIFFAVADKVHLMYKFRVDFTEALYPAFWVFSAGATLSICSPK
Flag-tagged PUM2 (full-length) (Q8TB72-3, form named): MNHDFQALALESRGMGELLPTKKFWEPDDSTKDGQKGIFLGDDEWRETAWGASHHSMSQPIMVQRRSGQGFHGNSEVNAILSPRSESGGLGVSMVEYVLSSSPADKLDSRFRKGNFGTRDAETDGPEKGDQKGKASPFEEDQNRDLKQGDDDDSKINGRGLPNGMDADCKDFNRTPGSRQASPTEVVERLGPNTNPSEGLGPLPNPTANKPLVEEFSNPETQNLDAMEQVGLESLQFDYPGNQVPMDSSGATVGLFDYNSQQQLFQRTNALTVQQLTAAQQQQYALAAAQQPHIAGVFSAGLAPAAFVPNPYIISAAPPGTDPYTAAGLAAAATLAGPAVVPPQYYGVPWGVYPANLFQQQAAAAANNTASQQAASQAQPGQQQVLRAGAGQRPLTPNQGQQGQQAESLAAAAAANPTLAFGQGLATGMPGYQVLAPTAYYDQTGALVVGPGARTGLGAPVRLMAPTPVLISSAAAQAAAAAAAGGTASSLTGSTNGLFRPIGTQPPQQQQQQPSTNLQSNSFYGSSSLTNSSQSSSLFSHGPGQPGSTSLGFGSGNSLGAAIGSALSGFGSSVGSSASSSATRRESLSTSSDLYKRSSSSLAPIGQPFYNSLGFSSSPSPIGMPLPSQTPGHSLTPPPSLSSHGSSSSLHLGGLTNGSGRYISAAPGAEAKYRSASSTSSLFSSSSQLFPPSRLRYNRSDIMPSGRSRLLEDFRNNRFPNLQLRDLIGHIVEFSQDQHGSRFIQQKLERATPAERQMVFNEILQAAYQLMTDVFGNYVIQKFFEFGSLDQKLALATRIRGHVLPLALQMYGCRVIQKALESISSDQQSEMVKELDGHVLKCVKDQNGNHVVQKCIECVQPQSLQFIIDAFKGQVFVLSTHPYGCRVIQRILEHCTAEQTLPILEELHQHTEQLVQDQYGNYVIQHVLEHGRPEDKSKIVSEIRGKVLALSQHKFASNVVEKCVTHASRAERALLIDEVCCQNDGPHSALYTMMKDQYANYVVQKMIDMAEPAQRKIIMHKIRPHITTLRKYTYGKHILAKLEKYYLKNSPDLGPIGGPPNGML
PUM2H850A (Flag-tagged) (Q8TB72-3, form named): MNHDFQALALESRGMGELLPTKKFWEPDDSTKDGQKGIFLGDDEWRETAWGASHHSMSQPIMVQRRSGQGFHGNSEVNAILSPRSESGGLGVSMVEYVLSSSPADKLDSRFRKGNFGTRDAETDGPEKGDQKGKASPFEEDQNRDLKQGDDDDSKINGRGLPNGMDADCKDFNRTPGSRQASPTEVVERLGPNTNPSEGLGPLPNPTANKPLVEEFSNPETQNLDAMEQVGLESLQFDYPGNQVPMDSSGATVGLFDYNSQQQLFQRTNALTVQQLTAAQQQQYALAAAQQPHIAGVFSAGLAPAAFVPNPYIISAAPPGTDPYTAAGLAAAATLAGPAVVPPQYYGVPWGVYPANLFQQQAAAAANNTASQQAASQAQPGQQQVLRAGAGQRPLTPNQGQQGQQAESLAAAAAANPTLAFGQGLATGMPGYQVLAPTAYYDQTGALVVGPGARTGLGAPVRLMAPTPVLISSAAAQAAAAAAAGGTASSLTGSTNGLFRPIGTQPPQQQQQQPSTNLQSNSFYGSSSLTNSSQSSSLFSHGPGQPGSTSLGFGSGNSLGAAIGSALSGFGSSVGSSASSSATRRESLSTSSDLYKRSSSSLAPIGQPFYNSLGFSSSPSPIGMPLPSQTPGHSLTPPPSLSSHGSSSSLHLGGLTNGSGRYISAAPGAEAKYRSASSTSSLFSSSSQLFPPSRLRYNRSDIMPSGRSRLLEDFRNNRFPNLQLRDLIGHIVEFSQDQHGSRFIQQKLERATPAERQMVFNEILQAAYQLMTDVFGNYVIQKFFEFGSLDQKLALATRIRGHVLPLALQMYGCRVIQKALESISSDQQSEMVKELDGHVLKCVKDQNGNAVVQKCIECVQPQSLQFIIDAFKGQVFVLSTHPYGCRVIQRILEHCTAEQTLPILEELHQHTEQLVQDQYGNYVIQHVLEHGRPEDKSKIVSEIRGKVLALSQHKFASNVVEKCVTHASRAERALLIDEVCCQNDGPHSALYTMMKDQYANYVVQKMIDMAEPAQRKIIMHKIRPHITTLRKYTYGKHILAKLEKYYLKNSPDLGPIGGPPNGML
UniProt Q7Z434: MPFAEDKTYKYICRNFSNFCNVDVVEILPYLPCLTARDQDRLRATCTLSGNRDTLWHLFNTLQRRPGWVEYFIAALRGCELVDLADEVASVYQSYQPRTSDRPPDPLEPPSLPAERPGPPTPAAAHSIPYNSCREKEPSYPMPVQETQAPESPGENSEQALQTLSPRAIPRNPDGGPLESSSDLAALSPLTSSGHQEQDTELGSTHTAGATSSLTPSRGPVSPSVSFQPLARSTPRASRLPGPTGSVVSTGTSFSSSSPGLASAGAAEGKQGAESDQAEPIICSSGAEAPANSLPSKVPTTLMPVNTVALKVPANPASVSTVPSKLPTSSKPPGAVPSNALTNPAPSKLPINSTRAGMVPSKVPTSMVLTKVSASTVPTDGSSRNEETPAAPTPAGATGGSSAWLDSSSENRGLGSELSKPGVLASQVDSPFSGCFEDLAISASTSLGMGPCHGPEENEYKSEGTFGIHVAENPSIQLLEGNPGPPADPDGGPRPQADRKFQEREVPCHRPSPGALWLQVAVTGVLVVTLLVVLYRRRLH

Experiments:
[1] = target: Flag-tagged PUM1 (full-length) (human) (UniProt Q14671); assay: co-IP; HEK293T cells co-transfected; lysates precipitated with anti-Flag antibody and Protein G Sepharose at 4°C overnight; Western blotting (anti-HA)
Myc-tagged TRIM25 = Myc-tagged TRIM25 (UniProt Q14258); assay: co-IP; HEK293T cells co-transfected with Flag-tagged PUM1 or PUM2 and Myc-tagged TRIM25; anti-Flag or anti-c-Myc immunoprecipitation, Protein G Sepharose; Western blotting
[2] = target: Flag-tagged PUM2 (full-length) (human) (UniProt Q8TB72); assay: co-IP; HEK293T cells co-transfected; lysates precipitated with anti-Flag antibody and Protein G Sepharose at 4°C overnight; Western blotting (anti-HA)
[3] = target: Flag-tagged PUM1dN (PUM-HD of PUM1) (human) (UniProt Q14671); assay: as above
[4] = target: PUM1H972A (Flag-tagged) (human) (UniProt Q14671); assay: as above
[5] = target: PUM2H850A (Flag-tagged) (human) (UniProt Q8TB72); assay: as above
[6] = target: recombinant PUM1 produced as GST fusion (N-terminal GST, C-terminal His6) (human) (UniProt Q14671); assay: native gel or EMSA; recombinant LGP2 (0.125 µg) with 32P-labeled dsRNA (25/25c) with or without Pumilio proteins (0.1, 0.3 or 0.5 µg); 20 mM Tris-HCl pH 8.0, 1.5 mM MgCl2, 1.5 mM DTT, 37°C 15 min; 15% acrylamide gel, TBE; both purified
[7] = target: recombinant PUM2 produced as GST fusion (N-terminal GST, C-terminal His6) (human) (UniProt Q8TB72); assay: as above
[8] = target: recombinant PUM1 produced as GST fusion (N-terminal GST, C-terminal His6) (human) (UniProt Q14671); assay: pull-down; GST pull-down without dsRNA: LGP2 (0.5 µg) mixed with GST-Pumilio proteins (0.5 µg) in 20 mM Tris-HCl pH 8.0, 1.5 mM MgCl2, 1.5 mM DTT, 37°C 15 min; Glutathione Sepharose 4B, room temperature 1 h; Western blotting; both purified
[9] = target: recombinant PUM2 produced as GST fusion (N-terminal GST, C-terminal His6) (human) (UniProt Q8TB72); assay: as above
[10] = target: recombinant PUM1 produced as GST fusion (N-terminal GST, C-terminal His6) (human) (UniProt Q14671); assay: condition: only in the presence of dsRNA (25/25c, 0.4 µg); pull-down; GST pull-down in the presence of synthetic dsRNA (25/25c, 0.4 µg): LGP2 (0.5 µg) mixed with GST-Pumilio proteins (0.5 µg) in 20 mM Tris-HCl pH 8.0, 1.5 mM MgCl2, 1.5 mM DTT, 37°C 15 min; Glutathione Sepharose 4B; Western blotting; both purified
[11] = target: recombinant PUM2 produced as GST fusion (N-terminal GST, C-terminal His6) (human) (UniProt Q8TB72); assay: as above

Molecule: HA-tagged PUM2 (from UniProt Q8TB72-3 1-1064)
binding [1]: binds

Molecule: HA-tagged IPS-1 (from UniProt Q7Z434 1-540)
binding [1]: no binding
binding [2]: no binding

B2: HA-tagged LGP2 full-length (protein, UniProt Q96C10 1-678)
chain: MELRSYQWEVIMPALEGKNIIIWLPTGAGKTRAAAYVAKRHLETVDGAKVVVLVNRVHLVTQHGEEFRRMLDGRWTVTTLSGDMGPRAGFGHLARCHDLLICTAELLQMALTSPEEEEHVELTVFSLIVVDECHHTHKDTVYNVIMSQYLELKLQRAQPLPQVLGLTASPGTGGASKLDGAINHVLQLCANLDTWCIMSPQNCCPQLQEHSQQPCKQYNLCHRRSQDPFGDLLKKLMDQIHDHLEMPELSRKFGTQMYEQQVVKLSEAAALAGLQEQRVYALHLRRYNDALLIHDTVRAVDALAALQDFYHREHVTKTQILCAERRLLALFDDRKNELAHLATHGPENPKLEMLEKILQRQFSSSNSPRGIIFTRTRQSAHSLLLWLQQQQGLQTVDIRAQLLIGAGNSSQSTHMTQRDQQEVIQKFQDGTLNLLVATSVAEEGLDIPHCNVVVRYGLLTNEISMVQARGRARADQSVYAFVATEGSRELKRELINEALETLMEQAVAAVQKMDQAEYQAKIRDLQQAALTKRAAQAAQRENQRQQFPVEHVQLLCINCMVAVGHGSDLRKVEGTHHVNVNPNFSNYYNVSRDPVVINKVFKDWKPGGVISCRNCGEVWGLQMIYKSVKLPVLKVRSMLLETPQGRIQAKKWSRVPFSVPDFDFLQHCAENLSDLSLD
binding [1]: binds
binding [3]: no binding
binding [2]: binds
binding [4]: binds
binding [5]: binds

Further lines, with some results ahead:

binding (Myc-tagged TRIM25): no binding
Molecule: Flag-tagged PUM2 (full-length) (from UniProt Q8TB72-3 1-1064)

binding (Myc-tagged TRIM25): no binding
Molecule: Flag-tagged PUM1 (full-length) (from UniProt Q14671 1-1186)

binding [1]: no binding
binding [2]: no binding
B1: HA-tagged MDA5 (protein, UniProt Q9BYX4 1-1025)
chain: MSNGYSTDENFRYLISCFRARVKMYIQVEPVLDYLTFLPAEVKEQIQRTVATSGNMQAVELLLSTLEKGVWHLGWTREFVEALRRTGSPLAARYMNPELTDLPSPSFENAHDEYLQLLNLLQPTLVDKLLVRDVLDKCMEEELLTIEDRNRIAAAENNGNESGVRELLKRIVQKENWFSAFLNVLRQTGNNELVQELTGSDCSESNAEIENLSQVDGPQVEEQLLSTTVQPNLEKEVWGMENNSSESSFADSSVVSESDTSLAEGSVSCLDESLGHNSNMGSDSGTMGSDSDEENVAARASPEPELQLRPYQMEVAQPALEGKNIIICLPTGSGKTRVAVYIAKDHLDKKKKASEPGKVIVLVNKVLLVEQLFRKEFQPFLKKWYRVIGLSGDTQLKISFPEVVKSCDIIISTAQILENSLLNLENGEDAGVQLSDFSLIIIDECHHTNKEAVYNNIMRHYLMQKLKNNRLKKENKPVIPLPQILGLTASPGVGGATKQAKAEEHILKLCANLDAFTIKTVKENLDQLKNQIQEPCKKFAIADATREDPFKEKLLEIMTRIQTYCQMSPMSDFGTQPYEQWAIQMEKKAAKEGNRKERVCAEHLRKYNEALQINDTIRMIDAYTHLETFYNEEKDKKFAVIEDDSDEGGDDEYCDGDEDEDDLKKPLKLDETDRFLMTLFFENNKMLKRLAENPEYENEKLTKLRNTIMEQYTRTEESARGIIFTKTRQSAYALSQWITENEKFAEVGVKAHHLIGAGHSSEFKPMTQNEQKEVISKFRTGKINLLIATTVAEEGLDIKECNIVIRYGLVTNEIAMVQARGRARADESTYVLVAHSGSGVIEHETVNDFREKMMYKAIHCVQNMKPEEYAHKILELQMQSIMEKKMKTKRNIAKHYKNNPSLITFLCKNCSVLACSGEDIHVIEKMHHVNMTPEFKELYIVRENKALQKKCADYQINGEIICKCGQAWGTMMVHKGLDLPCLKIRNFVVVFKNNSTKKQYKKWVELPITFPNLDYSECCLFSDED

binding [8]: binds
binding [9]: binds
binding [10]: no binding
binding [11]: no binding
B3: recombinant Flag-tagged LGP2 (6xHis-LGP2) (protein, UniProt Q96C10 1-678)
chain: B2 chain
binding [6]: no binding (condition: LGP2 in complex with dsRNA)
binding [7]: no binding (condition: LGP2 in complex with dsRNA)

binding [1]: no binding
binding [2]: no binding
B4: HA-tagged RIG-I (protein, UniProt O95786 1-925)
chain: MTTEQRRSLQAFQDYIRKTLDPTYILSYMAPWFREEEVQYIQAEKNNKGPMEAATLFLKFLLELQEEGWFRGFLDALDHAGYSGLYEAIESWDFKKIEKLEEYRLLLKRLQPEFKTRIIPTDIISDLSECLINQECEEILQICSTKGMMAGAEKLVECLLRSDKENWPKTLKLALEKERNKFSELWIVEKGIKDVETEDLEDKMETSDIQIFYQEDPECQNLSENSCPPSEVSDTNLYSPFKPRNYQLELALPAMKGKNTIICAPTGCGKTFVSLLICEHHLKKFPQGQKGKVVFFANQIPVYEQQKSVFSKYFERHGYRVTGISGATAENVPVEQIVENNDIIILTPQILVNNLKKGTIPSLSIFTLMIFDECHNTSKQHPYNMIMFNYLDQKLGGSSGPLPQVIGLTASVGVGDAKNTDEALDYICKLCASLDASVIATVKHNLEELEQVVYKPQKFFRKVESRISDKFKYIIAQLMRDTESLAKRICKDLENLSQIQNREFGTQKYEQWIVTVQKACMVFQMPDKDEESRICKALFLYTSHLRKYNDALIISEHARMKDALDYLKDFFSNVRAAGFDEIEQDLTQRFEEKLQELESVSRDPSNENPKLEDLCFILQEEYHLNPETITILFVKTRALVDALKNWIEGNPKLSFLKPGILTGRGKTNQNTGMTLPAQKCILDAFKASGDHNILIATSVADEGIDIAQCNLVILYEYVGNVIKMIQTRGRGRARGSKCFLLTSNAGVIEKEQINMYKEKMMNDSILRLQTWDEAVFREKILHIQTHEKFIRDSQEKPKPVPDKENKKLLCRKCKALACYTADVRVIEECHYTVLGDAFKECFVSRPHPKPKQFSSFEKRAKIFCARQNCSHDWGIHVKYKTFEIPVIKIESFVVEDIATGVQTLYSKWKDFHFEKIPFDPAEMSK
